Data as given in PubChem BioAssay AID1159614 (National Center for Advancing Translational Sciences (NCATS), 2016).
Screen size: about 45,000 compounds; about 65 (0.1%) were called active. Calls follow the shape of the dose curve; as a rule, active = well fitted activation curve with a large enough effect; inconclusive = small, poorly fitted or top-dose-only effect; inactive = no such curve, though single readings can be large or run the other way. The list shows a part of the results.

target: Galactocerebrosidase (Homo sapiens) (UniProt P54803); experiment: A Novel Cell-Based Assay to Identify Small Molecules for B -Galactocerebrosidase; settings: 145M-Twi-hGALC-G270D cells (Twitcher mouse brain line with human GALC G270D), HMU-beta-Gal fluorescence, 48 h; series mostly up to 57.5 µM; activation: at the top concentration; also: 0% is about no effect; nearly all actives have a fitted effect of over 65% in size
UniProt P54803, sequence (P54803 whole entry, looked up): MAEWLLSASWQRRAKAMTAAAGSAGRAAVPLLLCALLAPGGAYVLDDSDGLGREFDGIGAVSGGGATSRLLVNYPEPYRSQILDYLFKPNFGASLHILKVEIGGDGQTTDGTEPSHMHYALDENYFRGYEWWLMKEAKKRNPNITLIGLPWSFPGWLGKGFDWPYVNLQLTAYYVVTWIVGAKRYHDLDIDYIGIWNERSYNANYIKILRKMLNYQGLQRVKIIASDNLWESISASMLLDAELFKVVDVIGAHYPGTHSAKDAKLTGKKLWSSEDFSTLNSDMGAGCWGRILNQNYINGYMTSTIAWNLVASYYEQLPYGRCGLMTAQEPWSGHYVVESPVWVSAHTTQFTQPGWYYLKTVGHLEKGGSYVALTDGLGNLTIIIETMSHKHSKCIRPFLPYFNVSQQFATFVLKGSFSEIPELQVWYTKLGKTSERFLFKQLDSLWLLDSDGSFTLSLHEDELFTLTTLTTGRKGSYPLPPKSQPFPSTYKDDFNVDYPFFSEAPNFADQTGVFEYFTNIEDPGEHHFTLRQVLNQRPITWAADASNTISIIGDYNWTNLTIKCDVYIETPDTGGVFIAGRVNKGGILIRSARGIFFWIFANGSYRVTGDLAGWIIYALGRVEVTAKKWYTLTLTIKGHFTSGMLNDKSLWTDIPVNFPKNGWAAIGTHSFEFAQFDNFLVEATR
Summary of the method: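 Fluorescence readout: HMU-β-gal cleavage by mutant GALC (0.1 mM final, citrate/phosphate pH 5.2 with 1 mg/mL taurocholate), stopped with carbonate/bicarbonate plus Triton X-100. Cells: murine Twitcher 145M-Twi expressing human G270D GALC; qHTS for activators.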

activation, inactive:
COc1ccc2c(c1)c(=O)c(S(=O)(=O)c1ccc(Cl)cc1)cn2C -5.06%, CCCn1c(SCc2nc(-c3cc(OC)ccc3OC)no2)nnc1-c1ccc(Cl)cc1 -11.3%, CCOC(=O)c1cccc(NC(=O)c2cc3cc4ccc(C)cc4nc3o2)c1 -7.19%, CCc1cccc(CC)c1NC(=O)C(CC)n1nc(C)n2c(cc3cc(C)ccc32)c1=O (configuration not stated) -11%, CCOC(=O)c1c(C)[nH]c(C)c1S(=O)(=O)N1CCCC(C(=O)Nc2ccccc2OCC)C1 (configuration not stated) -0.614%, Cc1ccc2c(c1)C(c1ccccc1)N(C(=O)c1ccccc1F)CC(=O)N2 (configuration not stated) -9.27%, Cc1ccc(-c2nc(CS(=O)(=O)CC(=O)N3CCN(c4cccc(C)c4C)CC3)c(C)o2)cc1 -13.7%, CC1CCN(S(=O)(=O)c2ccc3c(c2)oc(=O)n3CC(=O)NC(C)c2ccccc2)CC1 (configuration not stated) -30.2%, CCCc1ccc(OC(C)C(=O)Nc2sc3c(c2C(=O)OC)CCCCC3)cc1 (configuration not stated) -18.8%, CCN1CCN(c2csc3ccc(C)cc3c2=O)CC1 -10.6%, Cc1ccccc1-c1noc(-c2cc3ccccc3oc2=O)n1 -7.11%, COc1ccc(Br)cc1CNC(=O)CSc1cc(=O)n(C)c2ccccc12 -17.3%, Cc1ccc(-n2ncc(C(=O)Nc3ccc4c(c3)OCCO4)c2C2CCN(C(=O)OC(C)(C)C)CC2)cc1 6.6%, CCCCNC(=O)c1nn(-c2ccc(C)cc2)c(=O)c2c1c1ccccc1n2C -20.9%, O=C(O)CC(O)C(=O)O (configuration not stated) -19.1%, Cc1cccc(CNC(=O)c2cccc(NC(=O)N3CCSc4ncccc43)c2)c1 -11.2%, CNc1c(NC(=O)c2cc(OC)cc(OC)c2)c(=O)oc2ccccc12 -8.85%, CSc1nc(Nc2cccc(C)c2)c(C#N)c(-c2ccccc2)n1 -20.4%, Cn1c(SCC(=O)N2CCCc3ccccc32)ncc(C(=O)Nc2ccc(F)cc2)c1=O -9.59%, CCOC(=O)c1cnc2ccc(OC)cc2c1NCCc1ccc(OC)c(OC)c1 -9.07%, CCCCN(Cc1ccccc1)S(=O)(=O)c1cc(Br)cc2c1N(C(=O)C1CC1)CC2 -12.3%, CCOC(=O)N1CCC(NC(=O)c2ccc3c(c2)N(Cc2ccccc2)C(=O)c2ccccc2S3=O)CC1 (configuration not stated) -9.99%, COc1cc(NC(=O)c2ccc(-c3nc(COc4ccccc4)c(C)o3)cc2)cc(OC)c1 -21.2%, COc1ccc2c(c1)c1c(c(=O)n(-c3ccc(C)cc3)c(=O)n1CC(=O)N1CCCC1)n2C -15.1%, CCOc1ccc(-n2ccn3c(CC(C)CC(=O)O)nnc3c2=O)cc1 (configuration not stated) -5.44%, Cc1ccccc1-c1nc2cc(NC(=O)c3cccc(OCCC(C)C)c3)ccc2o1 -22.9%, CCC12CN3CC(C)(CN(C1)C3c1ccccc1C)C2=O (configuration not stated) -24.2%, Cc1ccc(S(=O)(=O)c2cnc(SC(C)C(=O)Nc3ccccc3)[nH]c2=O)cc1 (configuration not stated) -4.47%, CCC(Cn1nnc2ccccc2c1=O)NC(=O)Nc1ccc(C)cc1 (configuration not stated) 3.54%, CCOc1ccc(OCC)c(NC(=O)c2cc(CN3CCOCC3)on2)c1 -9.14%, CC(=O)C1=C(c2ccc(Cl)c(Cl)c2)N(C(C)=O)n2c(nnc2C2CCCCC2)S1 -17.2%, O=C(CCc1nnc2n(Cc3ccccc3Cl)c(=O)c3ccccc3n12)Nc1ccc(F)cc1 -21.6%, CCCNC(=O)CCn1nc(-c2ccccc2)c2ccccc2c1=O -13.9%, O=C(CSc1nnc(CNC(=O)c2ccccc2F)n1-c1ccccc1)Nc1ccccc1F -11.1%, O=C(NCCS(=O)(=O)N1CCN(c2ccccc2F)CC1)C(c1ccccc1)c1ccccc1 -8.46%, O=C(Nc1ccccc1Cl)c1cc(S(=O)(=O)N2CCC3(CC2)OCCO3)ccc1F -8.46%, CNCCCC1c2ccccc2C=Cc2ccccc21 -8.34%, CCOC(=O)C1CCCN(C(=O)c2cccc(NC(=O)c3nsc4ccccc34)c2)C1 (configuration not stated) -16.7%, Cc1ccc(NC(=O)CCNS(=O)(=O)c2ccc(Br)s2)cc1 -7.67%, Cc1ccc(-c2nc(NC(=O)CSc3ncnc4sc5c(c34)CCC(C)C5)ns2)cc1 (configuration not stated) -13.9%, CCn1cc2nc(SCc3ccccc3Cl)n(CCc3ccccc3)c(=O)c2n1 -18.9%, CCOc1ccc(N(CC)S(=O)(=O)N2CCCC(C(=O)Nc3ccc(OC)c(OC)c3)C2)cc1 (configuration not stated) -12.3%, CCc1cccc(OCC(=O)Nc2ccc(S(=O)(=O)Nc3cc(C)nc(C)n3)cc2)c1 2.33%, COc1ccc(OC)c(CCNC(=O)c2ccc3c(c2)N(Cc2ccc(C)cc2)CCS3)c1 -28.6%, COc1ccc(F)cc1S(=O)(=O)NCCc1c(C)[nH]c2c(Cl)cccc12 -2.48%, COc1ccc2cc3cc(C(=O)NCc4ccc(C)cc4)oc3nc2c1 -19.9%, Cc1cc(C)cc(NC(=O)CSc2nc3c(oc4ccccc43)c(=O)n2-c2ccccc2F)c1 2.8%, CCOC(=O)N1CCC(NC(=O)c2c(C)nn(-c3ccc(C)cc3)c2-n2cccc2)CC1 -36.8%, CCCCOc1ccc(C(=O)Nc2nnc3n2CCS3)cc1 -27.4%, CCOCCCNC(=O)C1CCN(c2nn3cc(-c4ccc(F)cc4)nc3s2)CC1 -7.63%, Cc1ccc(-c2nnc(Nc3ccc(O)cc3)c3ccccc23)cc1S(=O)(=O)N1CCN(C)CC1 2.19%, COc1ccc(Nc2cc(C(=O)NCCc3ccc(C)cc3)c3ccccc3n2)c(OC)c1 -16%, COc1cc(-c2noc(-c3ccc(NCc4ccccc4)c([N+](=O)[O-])c3)n2)cc(OC)c1OC -7.81%, Cc1ccc(C(=O)NCCc2ccc(Cl)cc2)cc1-n1c(C)nc2cccnc21 -10.8%, CCOc1ccc(NC(=O)CCNS(=O)(=O)c2ccc3c(c2)oc(=O)n3C)cc1 -6.75%, CCCn1c2ccccc2c2cnn(CC(=O)NCCc3ccc(OCC)cc3)c(=O)c21 4.17%, CCC(C(=O)OCCOCCN(CC)CC)c1ccccc1 (configuration not stated) -4.35%, CCOc1ccc(-c2nn(CC(=O)NC3CCCCC3)c3c2cnc2ccc(C)cc23)cc1 -22%, CCn1c(=O)c2cc(C(=O)N(CCN(C)C)Cc3ccccc3)sc2c2ccccc21 13.4%, COc1ccccc1CNC(=O)c1ccc2c(c1)N(Cc1cccc(C)c1)C(=O)c1ccccc1S2(=O)=O -7.35%, COc1ccc(NC(=O)Cn2nnc3sc4c(c3c2=O)CCC(C)C4)c(OC)c1 (configuration not stated) -16.8%, Cc1ccc(C)c(Cn2c3ccccc3c3cnn(CC(=O)NCCC4=CCCCC4)c(=O)c32)c1 -7.49%
